Experimental data reported in PubChem BioAssay AID504832 (National Center for Advancing Translational Sciences (NCATS), 2011).
Among all 310,000 compounds or so, about 18,000 (5.8%) were called active. Inconclusive means that the source gave no clear call. Such entries were picked first, then a sample of the others. The call rests on the fitted dose curve; in most records, active means well fitted inhibition curve with a large enough effect; inconclusive means small, poorly fitted or top-dose-only effect, or another doubt; inactive means no such curve, though single readings can be large or run the other way. No potency is given beside an inconclusive call; the fits are too rough.

assay: Primary qHTS for delayed death inhibitors of the malarial parasite plastid, 48 hour incubation; conditions: P. falciparum luciferase growth in erythrocytes; series mostly up to 28.7 µM
How it was run: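 In quantitative HTS format, infected erythrocytes bearing luciferase-reporter parasites were treated for a single generation at 37 C. Luminescence after adding detection reagent served as the growth measure.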
On the % scale 0 is the no-effect control and ±100 the full control effect; potency means the concentration at half of the fitted maximal effect; tags describe the fitted curve by direction and shape.

Row | Compound | Potency | activity change, negative = inhibition
1 | O=C(CN1C(=O)CCC1=O)NCC12CC3CC(CC(C3)C1)C2 | inconclusive [inhibitor, single point] | –
2 | Cc1ccc(-n2c(SCC(=O)NNC(=S)Nc3ccccc3)nc3ccccc3c2=O)cc1 | inactive | –
3 | CCCN(C(=O)CCCSc1nc2ccccc2[nH]1)c1c(N)n(Cc2ccccc2)c(=O)[nH]c1=O | inconclusive [inhibitor, partial curve, poor fit] | –
4 | CN(C)c1cccc(C(=O)Nc2nc3ccccc3[nH]2)c1 | inactive | –
5 | CCOc1ccccc1-c1nc(-c2ccc(NC(=O)Cc3ccccc3OC)cc2)no1 | active: 13.1 µM | –
6 | CC1(C)Cc2cccc(C(=O)Nc3ccncc3)c2O1 | inconclusive [inhibitor, single point] | –
7 | CCOc1ccc(NC(=O)c2ccccc2NC(=O)CN2CCN(C(C)=O)CC2)cc1 | inconclusive [inhibitor, single point] | –
8 | CCc1ccc(N2C(=O)Nc3ccccc3C2(O)C(=O)N2CCN(c3ccccn3)CC2)cc1 (configuration not stated) | inactive | –
9 | Cc1cc(C)cc(N(CCC#N)C(=O)COC(=O)c2ccccc2SCC(=O)N2CCCC2)c1 | inconclusive [inhibitor, partial curve] | –
10 | Cc1ccc(C)c(N2CCN(C(=O)CC3Sc4ccccc4NC3=O)CC2)c1 (configuration not stated) | inconclusive [inhibitor, partial curve, poor fit] | –
11 | CCN(CC)S(=O)(=O)c1ccc(N/N=C/c2ccccc2OCC(=O)O)c([N+](=O)[O-])c1 | active: 10.4 µM | –
12 | COc1ccc(NC(=O)c2cc(C)no2)cc1OC | inactive | –
13 | CC1CCC(NC(=O)c2ccc(/C=C3\Oc4ccccc4N(C)C3=O)cc2)CC1 (configuration not stated) | inactive | –
14 | COc1ccc(CNC(=O)[C@H](NC(=O)C2CCN(C(=O)[C@@H](N)CCSC)CC2)C(C)C)cc1 | inactive | –
15 | O=C(Nc1ccc(S(=O)(=O)NC2CCCCC2)cc1)c1ccco1 | inconclusive [inhibitor, partial curve, poor fit] | –
16 | Cc1cc(C)nc(SCCCn2c(=O)[nH]c3ccccc32)n1 | inconclusive [inhibitor, partial curve, poor fit] | –
17 | Cc1cc(C)cc(NC(=O)c2cc(C)nc3ccccc23)c1 | inconclusive [inhibitor, partial curve, poor fit] | –
18 | C=C(C)C(=O)Nc1cccc(C2=NOC3(C2)C[C@@H](C(N)=O)N(C(=O)CC(c2ccccc2)c2ccccc2)C3)c1 (some centres not stated) | inconclusive [inhibitor, single point] | –
19 | COc1ccc(C(=O)NCCCN2CCOCC2)cc1Br | inconclusive [inhibitor, single point] | –
20 | COc1cc(/C=N/NC(=O)c2ccc(CN(C)S(=O)(=O)c3ccc(C)cc3)cc2)ccc1O | inactive | –
21 | COCCn1nnnc1C(c1ccc(C)cc1)N1CCN(Cc2ccc3c(c2)OCO3)CC1 (configuration not stated) | inconclusive [inhibitor, single point] | –
22 | COCCN(C(=O)c1ccccc1F)c1c(N)n(Cc2ccccc2)c(=O)[nH]c1=O | inconclusive [inhibitor, single point] | –
23 | COc1cc(SC)ccc1C(=O)OCC(=O)NCCC1=CCCCC1 | inactive | –

Row | Compound | Potency | activity change, negative = inhibition
24 | CC(C)C(=O)Nc1ccc(O)c(-c2csc(N)n2)c1 | inconclusive [inhibitor, partial curve, poor fit] | –
25 | CCOC(=O)Nc1ccc2c(c1)N(C(=O)N1CCN(C)CC1)c1ccccc1CC2 | active: 11.7 µM | –
26 | CC1CCN(c2ccc(C(=O)NCc3cccs3)cn2)CC1 | inconclusive [inhibitor, partial curve, poor fit] | –
27 | C=CCOc1ccc(CNc2ccc3[nH]c(=O)[nH]c3c2)cc1OCC | inconclusive [inhibitor, partial curve, poor fit] | –
28 | Cc1ccc(NC(=O)c2c(-c3c(F)cccc3Cl)noc2C)cc1F | active: 9.28 µM | –
29 | CSc1ccc(/C=C/c2cc(=O)c3ccccc3[nH]2)cc1 | active: 1.85 µM | –
30 | NNC(=O)c1sc2nc(N3CCOCC3)c3c(c2c1N)CCCC3 | inconclusive [inhibitor, single point] | –
31 | Nc1cc(=O)[nH]c(SCC(=O)Nc2cc(Cl)ccc2Cl)n1 | inactive | –
32 | COc1ccc(OC)c(-n2c(=O)c3ccccc3c3ccccc3c2=O)c1 | inactive | –
33 | Cc1nc(C)c(C(=O)OCC(=O)N(C)c2ccccc2)s1 | inactive | –
34 | CC(=O)c1[nH]c(C)c(C(=O)N2CCCC(Nc3cccc(F)c3)C2)c1C (configuration not stated) | inactive | –
35 | Cc1ccc(O)c(NC(=O)c2cc(-c3ccccc3Cl)on2)c1 | inconclusive [inhibitor, full curve, poor fit] | –
36 | CCCCC1=CC2=CC(=O)C(C)(OC(=O)CC)C(=O)C2=CN1c1ccc(OC)cc1 (configuration not stated) | active: 11.7 µM | –
37 | Cc1cc(C)c(-c2cc(C(=O)Nc3cc(C)ccc3C)[nH]n2)c(O)c1 | – | inactive: 3.23% [at 0.00184 µM]
38 | O=C(c1ccccn1)N(Cc1cccs1)C1(C(=O)NC2CCCCC2)CCCCC1 | inactive | –
39 | CCc1ccc(-c2nc(CS(=O)CC(=O)NCCCN3CCC(C)CC3)c(C)o2)cc1 (configuration not stated) | inconclusive [inhibitor, single point] | –
40 | CN(C)C(CNS(=O)(=O)c1ccc2ccccc2c1)c1ccccc1 (configuration not stated) | inconclusive [inhibitor, full curve, poor fit] | –
41 | CS(=O)(=O)Nc1cccc(C2=NN(C(=O)c3cccc([N+](=O)[O-])c3)C(c3cccs3)C2)c1 (configuration not stated) | – | inactive: 15.7% [at 0.00184 µM]
42 | Nc1nc(NCC2CCCO2)nc(Nc2ccccc2)c1[N+](=O)[O-] (configuration not stated) | active: 10.4 µM | –
43 | O=C(CCN1CCN(c2ccccc2)CC1)Nc1ccccc1 | inconclusive [inhibitor, single point] | –
44 | N#Cc1ccc(OCC(=O)N2CCN(S(=O)(=O)c3cccc(Cl)c3)CC2)cc1 | inconclusive [inhibitor, single point] | –
45 | CCCCNC(=O)c1ccccc1SCC(=O)NC1CCCCCCC1 | inconclusive [inhibitor, single point] | –
46 | CC(C)[C@H](NC(=O)[C@@H]1CSC2c3ccccc3C(=O)N21)C(=O)NC1CCCCC1 (some centres not stated) | inconclusive [inhibitor, single point] | –

Row | Compound | Potency | activity change, negative = inhibition
47 | Cn1c(=O)n(C)c2cc(NC(=O)CSc3nnc(-c4ccccc4O)n3-c3ccccc3)ccc21 | inconclusive [inhibitor, single point] | –
48 | CCN(c1ccc(F)cc1)S(=O)(=O)c1ccc2[nH]cc(C(=O)NCCCN3CCOCC3)c(=O)c2c1 | inconclusive [inhibitor, full curve] | –
49 | COc1ccc(CC(=O)Nc2ccc3c(C(F)(F)F)cc(=O)oc3c2)cc1OC | inconclusive [inhibitor, single point] | –
50 | COc1ccc(S(=O)(=O)NCc2cc(=O)n(C)c(=O)n2C)cc1C | inactive | –
51 | CN1CCN(c2cc(N3CCNCC3)ccc2[N+](=O)[O-])CC1 | inconclusive [inhibitor, single point] | –
52 | CCN(CC)C1CCN(C(=O)CCn2nnnc2CN2CCOCC2)C1 (configuration not stated) | inactive | –
53 | CC/C(=C\C=C\[C@@H]1C=C[C@@H]2CCC[C@H]2[C@@H]1C(=O)c1ccc[nH]1)[C@@H]1O[C@@H]([C@@H](C)C(=O)O)CC[C@@H]1C | active: 2.62 µM | –
54 | Cc1ccc2cccc(SCC(=O)NCc3ccco3)c2n1 | inactive | –
55 | COc1ccc2[nH]c(C)c(CCN(Cc3cccs3)C(=S)Nc3cccc(F)c3)c2c1 | active: 0.37 µM | –
56 | O=c1oc2ccccc2c(NC(c2ccccc2)c2ccccc2)c1[N+](=O)[O-] | active: 10.4 µM | –
57 | CCN1C(=O)C(CC(=O)Nc2ccc(OC)cc2)N(Cc2ccc3c(c2)OCO3)C1=S (configuration not stated) | inconclusive [inhibitor, single point] | –
58 | COc1cc(S(=O)(=O)Nc2ccc(C)cc2)ccc1N=Cc1c(C)[nH]n(-c2ccccc2)c1=O | inconclusive [inhibitor, single point] | –
59 | Cc1cccc(N=C2NC(=O)/C(=C/C=C/c3ccco3)S2)c1C | inactive | –
60 | O=C(Nc1ccc(Cl)c(S(=O)(=O)N2CCOCC2)c1)c1ccc(Cl)nc1 | inconclusive [inhibitor, partial curve, poor fit] | –
61 | C=CCNC(=O)NC(=O)CSc1nc2cc([N+](=O)[O-])ccc2n1-c1cccc(C(F)(F)F)c1 | inconclusive [inhibitor, partial curve, poor fit] | –
62 | CC(C)Cn1cc(C(=O)N2CCC(C)CC2)c2c3ccccc3n(C)c2c1=O | inconclusive [inhibitor, partial curve, poor fit] | –
63 | CC(C)c1ccc(NC2CCCN(C(=O)c3ccccc3-c3ncc[nH]3)C2)cc1 (configuration not stated) | inconclusive [inhibitor, partial curve, poor fit] | –
64 | O=C(CSc1ccc(Cl)cc1)N1N=CCC1c1ccccc1 (configuration not stated) | inconclusive [inhibitor, single point] | –
65 | COc1cc(C2=NOC(C(=O)N3CCOCC3)C2)cc(OC)c1OC (configuration not stated) | inconclusive [inhibitor, full curve] | –
66 | COC(=O)[C@@]12CCCN1[C@H](c1ccc(-c3ccc(C(C)=O)cc3)c(OC)c1)[C@H]1C(=O)N(C)C(=O)[C@H]12 | active: 13.1 µM | –
67 | Cc1ccccc1NC(=O)CCN1CCc2ccccc2C1 | inconclusive [inhibitor, full curve, poor fit] | –
